Results from PMC6919601, “Identification of Plasmodium dipeptidyl aminopeptidase allosteric inhibitors by high throughput screening” (PLoS ONE, 2019).
Several values for one entry are separate records, joined by “and”; a condition that tells them apart may be missing. Equal entries are not always repeated. Among all 110,000 compounds or so, about 230 (0.21%) showed an effect of 50% or more. The list shows a part of the results.

Each compound was assayed against DPAP1 (Plasmodium falciparum, UniProt Q8IIJ9) (assay: primary screen, percent inhibition; read by cleavage of a fluorogenic dipeptide substrate; higher = more effect of the substance).
DPAP1, sequence (Q8IIJ9 whole entry, looked up): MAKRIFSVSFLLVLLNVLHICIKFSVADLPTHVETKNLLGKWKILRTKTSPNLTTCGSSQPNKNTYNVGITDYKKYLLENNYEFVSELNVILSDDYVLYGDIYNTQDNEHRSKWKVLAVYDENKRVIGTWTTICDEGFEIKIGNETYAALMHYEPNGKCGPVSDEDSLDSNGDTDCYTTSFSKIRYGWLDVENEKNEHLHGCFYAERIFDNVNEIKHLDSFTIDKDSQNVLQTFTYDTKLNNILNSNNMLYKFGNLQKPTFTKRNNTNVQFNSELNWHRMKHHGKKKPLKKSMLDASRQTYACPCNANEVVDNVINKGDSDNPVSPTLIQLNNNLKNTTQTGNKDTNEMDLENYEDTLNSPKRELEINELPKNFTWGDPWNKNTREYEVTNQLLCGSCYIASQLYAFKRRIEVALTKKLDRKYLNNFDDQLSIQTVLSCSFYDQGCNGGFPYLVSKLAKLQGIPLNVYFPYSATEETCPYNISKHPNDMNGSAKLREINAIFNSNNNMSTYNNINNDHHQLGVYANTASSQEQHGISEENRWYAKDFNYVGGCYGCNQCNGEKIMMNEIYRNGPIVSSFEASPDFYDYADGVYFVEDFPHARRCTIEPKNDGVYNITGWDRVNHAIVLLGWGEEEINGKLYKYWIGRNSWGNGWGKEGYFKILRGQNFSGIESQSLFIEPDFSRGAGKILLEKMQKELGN
Set-up: species or system P. falciparum D10 trophozoite lysates; single well
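Note: 30 min substrate incubation versus DMSO and 10 µM JCP410 controls.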

Structure (SMILES) | % Inhibition @ 10 uM
CCC(C(=O)NCCCN1CCN(C2CCCCC2)CC1)n1nc(C)n2c(cc3occc32)c1=O (centres unmarked) | -3.79%
COc1cccc(C(=O)Nc2cc(Br)cc3cccnc23)c1 | 6.8%
O=C(O)CNC(=S)N(Cc1ccccc1Cl)C1CCCC1 | 1.42%
N[C@@H](c1ccccc1)C(O)(c1ccccc1)c1ccccc1 | -1.74%
N#Cc1cccc(NC(=O)/C=C/C(=O)O)c1 | 5.46%
CC1(C)CC(=NOC(=O)N2c3ccccc3CCc3ccccc32)CC(C)(C)N1 | -0.687%
COc1ccc(CN2C(=O)C3CC=C(C)CC3C2=O)cc1 (centres unmarked) | 0.275%
CC(C)CC(=O)Nc1ccc(N2CCCCC2)c(Cl)c1 | -0.25% and -0.519%
CSC1=C(C#N)C(c2cccc(Oc3ccccc3)c2)CC(=O)N1 (centres unmarked) | 13.2%
O=C(Cn1ncc2c1-c1ccccc1OC2)NCCC1=CCCCC1 | 1.72%
CC(=O)c1c(O)cc(C)o/c1=N\C1CCCCC1 | 1.13%
CCOc1ccc(-c2nc(NC(=O)c3sc(C)nc3C)sc2C)cc1 | -2.71%
CCCOC(=O)C1=C(C)NC(=O)NC1c1cccc(Cl)c1 (centres unmarked) | 0.162%
CCOc1ccc(-c2cc(C(=O)O)c3c(-c4ccc(F)cc4)[nH]nc3n2)cc1 | -0.901%
O=C(O)/C=C/c1cccc(C(=O)O)c1 | -6.11%
O=C(Nc1ccccc1C(=O)NCc1ccccc1)c1ccccc1 | 1.89%
Cc1ccc(O)c(NC(=O)CSc2ccccc2)c1 | -3.43%
COc1ccc2cc3cc(C(=O)N(C)Cc4ccccc4)sc3nc2c1 | 0.402%
O=C(NCc1cccnc1)C1=Cc2sc3c(c2CS1)CCCC3 | 8.38%
Cc1[nH]c(C=O)c(C)c1C(=O)OCc1ccccc1 | 0.919%
CCC1=CC(C)(CC)N(Cc2ccc([N+](=O)[O-])cc2)c2cc(C)ccc21 (centres unmarked) | -8.11%
COC(=O)c1nnn(-c2ccccc2F)c1C(=O)OC | -3.39%
Cc1cccc(Cn2c(C)c(C)c3cc(C(=O)NCc4cccnc4)ccc32)c1 | 2.29%
O=C(NC1CSCC1=O)c1ccccc1 (centres unmarked) | -1.15%
CCCC(=O)c1cc2cc(Br)cc(Br)c2oc1=O | -3.44%
CC1CC(C)CN(S(=O)(=O)c2ccc(NC(=O)c3ccccc3Cl)cc2)C1 (centres unmarked) | -4.74%

Structure (SMILES) | % Inhibition @ 10 uM
CN1CCN(C(=O)c2cc(Cl)ccc2NC(=O)c2ccc(Cl)cc2Cl)CC1 | -3.71%
COc1ccc(-c2[nH]nc3c2C2(C(=O)Nc4ccc(C)c(Br)c42)C(C#N)=C(N)O3)cc1 (centres unmarked) | 2.32%
Cc1ccc(-c2cc(C(=O)N3CCOCC3)c3ccccc3n2)cc1C | 7.39%
N#CCC(=O)NCCCOC(=O)Nc1ccc(Cl)c(Cl)c1 | -4.01%
COc1ccc(Cl)c(Cn2c(NCCO)nc3c2c(=O)n(C)c(=O)n3C)c1 | 0.248%
CCOc1ccc(-n2nc3ccc(NC(=O)c4ccc(Br)o4)cc3n2)cc1 | 2.09%
CS(=O)(=NS(=O)(=O)c1ccccc1)c1ccccc1 (centres unmarked) | 3.05%
CN(C)c1ccc(CN2CCN(C/C=C/c3ccccc3)CC2)cc1 | -5.61%
COc1ccc2ccccc2c1C1CC(=O)N2CN(C3CCCCC3)CSC2=C1C#N (centres unmarked) | 26.9%
CCN(c1ccccc1)S(=O)(=O)c1ccc(NC(=O)c2ccccc2C)cc1 | 2.01%
CCOC(=O)C1=C(C)N(C)C(=S)NC1c1ccc(OCc2ccccc2)c(OCC)c1 (centres unmarked) | -0.339%
O=C(C(Cc1ccccc1)N1C(=O)C2CCCCC2C1=O)N1CCN=C1c1ccccc1 (centres unmarked) | 4.83%
CC(=O)N1CC2(C)CN(C(C)=O)CC(C)(C1)C2 | -3.49%
COc1ccc2c(c1OC)C(=O)OC2Nc1cccc(C)n1 (centres unmarked) | -4.93%
CNC(=O)CN(c1ccc(F)cc1)S(=O)(=O)c1ccc(OC)c(OC)c1 | 5.99%
Cn1c(=O)c2c(nc(NCCN)n2Cc2ccc(Cl)cc2)n(C)c1=O | -1.5%
O=C(CSCCO)Nc1ccc(C23C[C@H]4C[C@@H](C2)C[C@@H](C3)C4)cc1 | 5.31%
CCN(CC)S(=O)(=O)C1CCS(=O)(=O)C1 (centres unmarked) | -2.62%
COc1ccc(OC)c(NS(=O)(=O)c2ccc(Br)cc2)c1 | -5.01%
CCOC(=O)N1CCC(Nc2cc(C)nc3c(-c4ccccc4OC)c(C)nn23)CC1 | -6.91%
CCC(Oc1ccccc1)C(=O)Nc1sc2c(c1C(N)=O)CCCC2 (centres unmarked) | -3.26%
Cc1cc(NC(=O)c2ccc3c(c2)C(=O)N(Cc2ccccc2)C3=O)no1 | -3.96%
O=C(O)c1ccccc1C(=O)Nc1ccc2c(c1)OCO2 | 3.58%
COc1cc(C(=O)N(Cc2cccc(Cl)c2)C2CCS(=O)(=O)C2)cc(OC)c1OC (centres unmarked) | -1.18%
O=C(Nc1nc(-c2ccc(F)cc2F)cs1)c1cccs1 | -5.06%
CCOc1ncnc2c1[nH]c1ccc(F)cc12 | 4.7%

Structure (SMILES) | % Inhibition @ 10 uM
Cc1c(C)c(COc2cccc3cccnc23)c(C)c(C)c1Br | 2.22%
Clc1ccc2nncn2n1 | 4.01%
CC(C)CNS(=O)(=O)c1ccccc1C(=O)N1CCCCC1 | -3.27%
O=C(Cn1nnc2sc(-c3ccccc3)cc2c1=O)NCc1ccccc1 | 4%
CCOC(=O)C1CCCN(Cc2ccc(N(C)C)cc2)C1 (centres unmarked) | -0.0404%
Cc1ccc(NC(=O)C2CC(O)CN2C(=O)OCc2ccccc2)c(C)c1 (centres unmarked) | -3.69%
COc1cc(C=C2C(=O)NC(=O)NC2=O)ccc1OCc1ccc(C(=O)O)cc1 | 10.5%
CCOc1ccc(N2C(=O)CC(NCCc3cccc(OC)c3)C2=O)cc1 (centres unmarked) | 5.94%
O=C1CC(N2CCC(Cc3ccccc3)CC2)C(=O)N1c1ccc(F)cc1 (centres unmarked) | 4.32%
N#Cc1ccccc1NC(=O)c1cc(Cl)ccc1Cl | -2.96%
CN1CCCN(Cc2ccccc2[N+](=O)[O-])CC1 | -5.57%
CCn1c(C(=O)NCc2ccccn2)cc2oc3ccccc3c21 | -3.96%
Brc1ccccc1CN1CCN(c2ccccc2)CC1 | -3.56%
COc1cc(OC)c(CN(C)C2CCN(C)CC2)cc1Br | -4.61%
CCC(C(=O)NCCc1ccc(S(N)(=O)=O)cc1)n1nc(C)c2sc3ccccc3c2c1=O (centres unmarked) | 1.46%
Cc1[nH]c(=O)[nH]c(=O)c1/C=C/C(=O)O | -9.33% and -3.64%
CCCn1c(C(C)NC(=O)c2ccc(F)cc2)nc2ccccc21 (centres unmarked) | 12.7%
Oc1ccc(-c2csc(Nc3ccccn3)n2)cc1O | 0.627%
COc1cc(OC)cc(C(=O)Nc2c(C)nn(-c3ccccc3)c2C)c1 | 1.86%
CCOC(=O)C1CCN(Cc2cc(Br)ccc2OC)CC1 | -0.294%
O=C(Nc1ccccc1)c1cc2ccccc2c(=O)s1 | 0.343%
CCCCc1c(C)nc2ccc(OC)cc2c1Cl | 1.27%
COc1ccc(C2C(C#N)C(=O)NC(=O)C2[n+]2ccccc2)cc1 (centres unmarked) | -2.86%
CCc1[nH]nc2c1C(c1ccc(O)cc1)C(C#N)=C(N)O2 (centres unmarked) | -2.53%
CCOC(=O)c1[nH]c2ccccc2c1NC(=O)c1ccc(C(C)(C)C)cc1 | 4.14%
COc1cc(C2C(C#N)=C(N)Oc3[nH]nc(C)c32)ccc1OCc1cccc(F)c1 (centres unmarked) | 0.746%

Structure (SMILES) | % Inhibition @ 10 uM
Cc1ccnc(NC(=O)c2c(-c3ccccc3Cl)noc2C)c1 | 2.93%
Oc1ccc(-c2nc3ccc4ccccc4c3c3c2CCCC3)c(O)c1 | 4.63%
CCCN1CCC(N2CCCC(C(=O)N(C)CCc3ccc(OC)c(OC)c3)C2)CC1 (centres unmarked) | 5.44%
COc1ccc2c(C)c(CC(=O)NCc3ccco3)c(=O)oc2c1OC | -0.808%
O=C(CCn1nc(-c2ccc(Cl)cc2)c2ccccc2c1=O)N1CCN(Cc2ccccc2)CC1 | -1.17%
CCC(CC)CC(NC(=O)OCc1ccccc1)C(=O)NCC#N (centres unmarked) | -1.41%
Cc1ccc(-c2nnc(C3CCN(S(=O)(=O)c4ccc(C(C)(C)C)cc4)CC3)o2)cc1 | 8.53%
COc1ccc(-c2noc(CSc3nnc(-c4ccncc4)n3-c3ccccc3)n2)cc1OC | -0.45%
CCO/C(O)=C1\Sc2ccccc2N=C1C | -5.62%
Clc1ccccc1CNCc1cn2c(-c3ccc(Br)cc3)nnc2s1 | -9.42%
O=C(COc1ccc(Cl)cc1)NCc1nnc(SCC(=O)N2CCCC2)o1 | -7.21%
COC(=O)c1ccc(OCC2c3cc(OC)c(OC)cc3CCN2C(=O)Cc2cccs2)cc1 (centres unmarked) | 0.237%
CCCN(CCC)CCNC(=O)C1CCN(c2nc3ccc(OC)cc3s2)CC1 | 3.33%
CN1C(=O)c2cccc3c(S(=O)(=O)N4CCCC4C(=O)O)ccc1c23 (centres unmarked) | -0.95%
COc1ccc(-n2c(Cc3cccn3C)nnc2SCC(=O)NCc2ccco2)cc1 | -7.65%
Cc1ccc(CNC(=O)CSCc2csc(C)c2)cc1 | -0.231%
CCC(C)NC(=O)c1nn(C)c2c1COc1ccccc1-2 (centres unmarked) | 3.3%
CC1=CCC(c2cnc(-c3ccccc3)c(C)c2)NC1c1ccccc1 (centres unmarked) | -8.11%
Cc1[nH]c2ccccc2c1/C=C1\C(=N)N2N=C(N3CCC(C)CC3)SC2=NC1=O | -3.44%
CC(=O)c1cc(-c2ccccc2)n(CC(=O)NCc2ccccc2F)c1C | 7.81%
Cc1ccc(S(=O)(=O)c2nnn3c2nc(NCCC(C)C)c2sccc23)cc1 | 4.58%
CC(=O)N1N=C(N)SC1c1ccc(N(C)C)cc1 (centres unmarked) | -3.93%
Cc1nnc(NC(=O)C(=O)c2cc(C)n(-c3ccccc3)c2C)s1 | 0.655%
